# Experimental data as given in the supplement of paper PMC5655136.
# Values come from read counts of a selection and are noisy.
# Test system: NB7
# Test: fold depletion of shRNA, plasmid library share / infected cells without Dox share (9 days) (ratio); higher = more depleted after infection (more toxic, leaky expression from a Tet-inducible vector; NB7 is a neuroblastoma line without caspase-8)
# Conditions: shRNA pool: CD95L ORF + CD95L 3'UTR + Venus libraries
# 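Also: shRNA barcodes quantified by deep sequencing of PCR amplicons from cellular DNA, counts expressed as percent of each subpool, ratio averaged over two biological duplicates.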
row,Sequence,fold depletion of shRNA
1,GGTGGGCCTTGCTACCTCAAG,2.79
2,GGTGGTGCCCATCCTGGTCGA,0.676
3,GGTGTGTGTGTGTGTGTGTGT,0.756
4,GGTGTTCTACACTCATCTTAG,1.12
5,GGTTCAAAATGTCTGTAGCTC,1.36
6,GGTTCTGGTTGCCTTGGTAGG,0.411
7,GGTTGCATTTGGTCAAGATTT,0.869
8,GGTTGCCTTGGTAGGATTGGG,0.863
9,GGTTGTGACCTGAGGATTTAA,0.337
10,GTAAACGGCCACAAGTTCAGC,2.83
11,GTAAGAAGACATGAACCAAGT,3.11
12,GTAATAAAAAGTATATGTTAG,0.329
13,GTACAACTACAACAGCCACAA,5.78
14,GTACATATTAGGAAAATATGG,1.44
15,GTACTTTGTATATTCCAAAGT,0.442
16,GTAGATATTGTGAAGTACATA,0.672
17,GTAGGGGTGTGTGTGTGTGTG,0.756
18,GTATAAGAAGGGTGGCCTTGT,1.75
19,GTATACTTCCGGGGTCAATCT,2.68
20,GTATATTCCAAAGTATACTTC,0.384
21,GTATCTGAGCTCTCTCTGGTC,2.77
22,GTATGACTAAAGAGAGAATGT,0.499
23,GTATTCAGTGAGGGTCTTCTT,2.98
24,GTATTTAGGCAGATTGAAAAG,1.59
25,GTATTTCCAGTGCAATTGTAG,6.14
26,GTCAACGTATCTGAGCTCTCT,2.96

row,Sequence,fold depletion of shRNA
1,GTCAAGATTTTGAATGCTTCC,0.844
2,GTCAAGTAAGAAGACATGAAC,2.46
3,GTCAATCTTGCAACAACCTGC,1.11
4,GTCAATTTTGAGGAATCTCAG,0.536
5,GTCAGCTACTAATGATGTTTT,2.31
6,GTCCAACCTCTGTGCCCAGAA,3.2
7,GTCCAACTCAAGGTCCATGCC,4.06
8,GTCCACCCCCTGAAAAAAAGG,14.4
9,GTCCAGGAGCGCACCATCTTC,0.898
10,GTCCATGCCTCTGGAATGGGA,8.83
11,GTCCGCCATGCCCGAAGGCTA,1.46
12,GTCCGCCCTGAGCAAAGACCC,0.524
13,GTCCGGCGAGGGCGAGGGCGA,0.339
14,GTCCTGCTGGAGTTCGTGACC,1.58
15,GTCCTGCTTTCTGGAGTGAAG,5.25
16,GTCGAGCTGGACGGCGACGTA,1.91
17,GTCTACATGAGGAACTCTAAG,1.08
18,GTCTATATCACCGCCGACAAG,2.44
19,GTCTCCTTGTGATGTTTTTCA,2.14
20,GTCTTCTTACATGCATTTGAG,2.35
21,GTCTTTCAGATACATGGTTGT,11
22,GTGAAACTAACAGATAAGCAA,1.39
23,GTGAAATGAAAACATGTAATA,1.16
24,GTGAACCGCATCGAGCTGAAG,1.33
25,GTGAAGAGGGAGAAGCATGAA,4.35
26,GTGAAGTACATATTAGGAAAA,0.607

row,Sequence,fold depletion of shRNA
1,GTGAAGTATAAGAAGGGTGGC,0.941
2,GTGAAGTTCGAGGGCGACACC,1.17
3,GTGACCACCCTGGGCTACGGC,2.07
4,GTGACCGCCGCCGGGATCACT,0.861
5,GTGACCTGAGGATTTAAGGGA,0.28
6,GTGAGCAAGGGCGAGGAGCTG,1.06
7,GTGAGGGTCTTCTTACATGCA,0.239
8,GTGATCAATGAAACTGGGCTG,2.27
9,GTGATGATGGAGGGGAAGATG,1.96
10,GTGATGTTTTTCATGGTTCTG,0.895
11,GTGCAATTGTAGGGGTGTGTG,2.2
12,GTGCAGCTCGCCGACCACTAC,0.284
13,GTGCATTTTTGTGAAATGAAA,0.721
14,GTGCCTGAGAGTATTTAGGCA,2.04
15,GTGCTGATCATTTATATGTCA,2.36
16,GTGCTGCTGCCCGACAACCAC,0.409
17,GTGCTTAAAAATCATTGATTG,0.672
18,GTGCTTCGCCCGCTACCCCGA,0.294
19,GTGGACAGCAGTGCCAGCTCT,2.62
20,GTGGACCTTGAGACCACAGGG,0.837
21,GTGGCCCATTTAACAGGCAAG,0.756
22,GTGGCCTTGTGATCAATGAAA,0.633
23,GTGGGCCTTGCTACCTCAAGG,1.04
24,GTGGTGCCCATCCTGGTCGAG,0.802
25,GTGTATGACTAAAGAGAGAAT,0.44

# Same assay, conditions: shRNA pool: CD95 ORF + CD95 3'UTR + Venus libraries
row,Sequence,fold depletion of shRNA
1,GGTGGTGCCCATCCTGGTCGA,1.94
2,GGTGTCAATGAAGCCAAAATA,5.79
3,GGTGTCATATTATACAATATT,0.715
4,GGTTCTCATGAATCTCCAACT,1.52
5,GGTTTTTTACTGGGTACATTT,1.27
6,GTAAAAGTACGTAATTAAATA,1.07
7,GTAAAATCATCATCTGGATTT,1.17
8,GTAAACCAAACTTTTTTTGTA,0.754
9,GTAAACGGCCACAAGTTCAGC,2.23
10,GTAAAGTATATGTATTTGAGT,1.22
11,GTAAATACTGCTTGGTTTTTT,0.952
12,GTAAATATATCACCACTATTG,0.836
13,GTAAATGTAAACTGTGAAGAT,1.47
14,GTAACTCTACTGTATGTGAAC,0.986
15,GTAATCAGTGTATGTTAGTAC,1.51
16,GTAATTAAATAATGTTTTTGG,0.979
17,GTAATTGGCATCAACTTCATG,0.695
18,GTACAAATGTCTATCCACAGG,1.29
19,GTACAACTACAACAGCCACAA,2.51
20,GTACACAGACAAAGCCCATTT,1.54
21,GTACAGAAAACATGCAGAAAG,0.839
22,GTACATTTTATCATTTATTAG,1.94
23,GTACCCAAATAGGAGTGTATG,2.68

row,Sequence,fold depletion of shRNA
1,GTACGTAATTAAATAATGTTT,0.866
2,GTACTCTTGCAGAGAAAATTC,0.93
3,GTAGATTGTGTGATGAAGGAC,2.38
4,GTAGATTTTTAATATCTCATG,0.896
5,GTAGTATGAATGTAATCAGTG,1
6,GTATATGCAATTAGTGTTTGA,1.23
7,GTATATGTATTTGAGTGCAGA,1.99
8,GTATGAATGTAATCAGTGTAT,1.19
9,GTATGACACATTGATTAAAGA,1
10,GTATGCAGAGGATGAAAGATT,1.48
11,GTATGCATTTTACTGGCTCAA,0.932
12,GTATGTGAACACTGTGACCCT,3.04
13,GTATGTTAGTACAAATGTCTA,1.34
14,GTATTAAATGTGAATTTTAAG,3.02
15,GTATTACTAGAGCTTTGCCAC,2.68
16,GTATTTGAGTGCAGAATTTAA,1.08
17,GTCAAGTTAAAGGCTTTGTTC,1.02
18,GTCAATGAAGCCAAAATAGAT,1.45
19,GTCAATGGGGATGAACCAGAC,2.19
20,GTCATACCCCCAAGTTTCTAA,2.02
21,GTCATATTATACAATATTTCA,0.755
22,GTCATGAACCCATGTTTGCAA,2.07
23,GTCATGACACTAAGTCAAGTT,1.25

row,Sequence,fold depletion of shRNA
1,GTCCAAAAGTGTTAATGCCCA,2.12
2,GTCCAAGACACAGCAGAACAG,1.32
3,GTCCAGGAGCGCACCATCTTC,0.797
4,GTCCCATGTAAAACCTGCTAC,6.66
5,GTCCGCCATGCCCGAAGGCTA,0.905
6,GTCCGCCCTGAGCAAAGACCC,3.99
7,GTCCGGCGAGGGCGAGGGCGA,0.869
8,GTCCTGCTGGAGTTCGTGACC,1.98
9,GTCGAGCTGGACGGCGACGTA,0.799
10,GTCTATATCACCGCCGACAAG,2.07
11,GTCTATCCACAGGCTAACCCC,8.56
12,GTCTGTTGCTAGATTATCGTC,1.52
13,GTCTTCTTCTTTTGCCAATTC,2.61
14,GTGAAAAACAACAAATTCAGT,0.887
15,GTGAAAGGAAAGCTAGGGACT,0.524
16,GTGAACACTGTGACCCTTGCA,0.36
17,GTGAACATGGAATCATCAAGG,3.04
18,GTGAACCGCATCGAGCTGAAG,0.613
19,GTGAAGAGAAAGGAAGTACAG,2.47
20,GTGAAGATAGTTATAAACTGA,1.15
21,GTGAAGTTCGAGGGCGACACC,0.725
22,GTGAATTCACATAGAAAACAT,1.11
23,GTGAATTTTAAGAAATAATAT,1.19

row,Sequence,fold depletion of shRNA
1,GTGACATGTCATGAACCCATG,1.34
2,GTGACCACCCTGGGCTACGGC,1.37
3,GTGACCCTTGCACCAAATGTG,0.667
4,GTGACCGCCGCCGGGATCACT,0.708
5,GTGACTCAGAAAATTCAAACT,2.37
6,GTGACTGACATCAACTCCAAG,2.19
7,GTGAGCAAGGGCGAGGAGCTG,0.523
8,GTGATGAAGGACATGGCTTAG,2.18
9,GTGCAAAGAGGAAGGATCCAG,2.38
10,GTGCAGAATTTAAATAAGGCT,0.95
11,GTGCAGCTCGCCGACCACTAC,0.454
12,GTGCCCATCCTGGTCGAGCTG,2.11
13,GTGCCCTGCCAAGAAGGGAAG,1.17
14,GTGCCCTGGCCCACCCTCGTG,0.573
15,GTGCTCATCTTAATGGCCTAA,8.23
16,GTGCTTCGCCCGCTACCCCGA,1.12
17,GTGGCAATAAATTTATCTGAT,1.12
18,GTGGTGCCCATCCTGGTCGAG,0.567
19,GTGTATGCAGAGGATGAAAGA,2.39
20,GTGTATGCATTTTACTGGCTC,13.3
21,GTGTATGTTAGTACAAATGTC,1.39
